# According to article PMC4336329 (PLoS ONE, 2015):
# The whole screen tested about 310,000 compounds, of which about 2,200 (0.71%) showed an effect of 50% or more. Effects have a minus sign here. The list shows a part of the results.
# Molecular target: human ether-à-go-go-related gene (hERG) potassium channel (human, UniProt Q12809)
# Assay: primary screen, population patch clamp on CHO cells stably expressing hERG
# Sequence of human ether-à-go-go-related gene (hERG) potassium channel (Q12809 whole entry, looked up): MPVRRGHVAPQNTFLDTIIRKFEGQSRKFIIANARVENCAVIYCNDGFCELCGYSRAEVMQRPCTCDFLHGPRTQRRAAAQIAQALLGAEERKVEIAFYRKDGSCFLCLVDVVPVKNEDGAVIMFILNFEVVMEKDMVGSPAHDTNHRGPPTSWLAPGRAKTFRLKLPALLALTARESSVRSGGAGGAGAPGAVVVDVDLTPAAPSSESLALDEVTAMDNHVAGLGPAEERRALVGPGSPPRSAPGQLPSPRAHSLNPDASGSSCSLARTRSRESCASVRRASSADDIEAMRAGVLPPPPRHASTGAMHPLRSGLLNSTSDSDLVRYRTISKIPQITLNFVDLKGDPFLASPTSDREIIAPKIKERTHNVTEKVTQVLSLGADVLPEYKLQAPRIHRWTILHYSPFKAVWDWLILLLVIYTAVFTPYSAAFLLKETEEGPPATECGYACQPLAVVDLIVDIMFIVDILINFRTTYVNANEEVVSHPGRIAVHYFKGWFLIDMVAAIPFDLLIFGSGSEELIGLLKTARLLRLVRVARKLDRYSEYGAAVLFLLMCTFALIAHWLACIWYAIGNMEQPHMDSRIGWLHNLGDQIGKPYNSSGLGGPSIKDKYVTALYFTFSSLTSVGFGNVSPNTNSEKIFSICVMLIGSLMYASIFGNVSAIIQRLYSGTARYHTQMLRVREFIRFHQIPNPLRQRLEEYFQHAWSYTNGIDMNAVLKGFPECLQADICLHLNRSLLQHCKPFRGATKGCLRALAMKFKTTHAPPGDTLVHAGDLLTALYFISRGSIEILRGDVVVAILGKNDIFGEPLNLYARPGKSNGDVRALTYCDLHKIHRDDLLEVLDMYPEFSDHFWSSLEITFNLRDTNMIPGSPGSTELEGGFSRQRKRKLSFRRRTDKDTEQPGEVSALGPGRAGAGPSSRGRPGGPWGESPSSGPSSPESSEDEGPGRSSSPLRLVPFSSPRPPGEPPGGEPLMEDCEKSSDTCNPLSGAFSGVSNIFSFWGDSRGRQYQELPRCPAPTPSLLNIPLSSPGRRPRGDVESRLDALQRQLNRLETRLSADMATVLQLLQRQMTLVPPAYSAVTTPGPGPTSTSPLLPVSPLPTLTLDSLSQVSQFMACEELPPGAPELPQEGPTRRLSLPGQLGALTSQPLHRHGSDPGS
row,SMILES,"hERG current change (%, negative = inhibition) at 1uM"
1,O=C(O)c1cc(/C=C/c2ccc(N3CCOCC3)cc2)nc2ccccc12,1.41%
2,Cc1ccc(NC(=O)/C=C/c2ccc3c(c2)OCO3)nc1,3.7%
3,N#Cc1ccc(OCC(=O)Nc2cc(S(=O)(=O)N3CCCCC3)ccc2N2CCCCC2)cc1,-5.18%
4,CCS(=O)(=O)N1CCN(S(=O)(=O)c2ccc3ccccc3c2)CC1,13%
5,O=C(NCc1ccccc1)C(=O)NCC1OCCN1C(=O)c1cccs1 (stereo not drawn),-54.6%
6,CC1(C)CC(NC(=S)NCc2ccco2)CC(C)(C)N1,6.74%
7,CC(=O)Nc1ccc2sc(C)nc2c1,8.83%
8,COc1ccccc1/C=N/NC(=S)Nc1cccnc1,11%
9,Cc1cc(C(=O)CCC(=O)N(C)CC(=O)Nc2c(Cl)cccc2Cl)c(C)s1,2.1%
10,CCn1c(SCC(=O)c2[nH]c(C)c(C(C)=O)c2C)nnc1-c1ccccc1,-2.15%
11,COc1cc(CCC(=O)OCC(=O)Nc2ccc(C(N)=O)cc2)cc(OC)c1OC,12.9%
12,Cn1c(=S)[nH]c2cccnc21,11%
13,CC(C)NC(=O)C1(S(=O)(=O)c2ccccc2)CC=CC1,4.45%
14,O=C(Cc1cccc(NC(=O)C2CCCN(C(=O)C3CCCCC3)C2)c1)Nc1cccc(C(=O)N2CCCC2)c1 (stereo not drawn),0.382%
15,CC(OC(=O)/C=C/c1ccc2ccccc2n1)C(=O)N(C)c1ccccc1 (stereo not drawn),13.7%
16,Cc1c(Cl)c([N+](=O)[O-])nn1CC(=O)NCC1CCCO1 (stereo not drawn),10.3%
17,CCn1c(CCNC(=O)c2ccc(OC)c(OC)c2)nc2ccccc21,-9.78%
18,CSc1nn(CCc2ccncc2)c(=S)s1,9.15%
19,Cc1ccc2c(c1)N(C(=O)CCC(=O)NCc1ccccc1)CC(C)O2 (stereo not drawn),4.18%
20,CCOC(=O)c1cnc(N)nc1C(F)(F)F,-2.92%
21,COc1ccccc1-n1c(-c2ccccc2)n[nH]c1=S,12.2%
22,Br.CCCCCCC1CC(CSC(=N)N)OC1=O (stereo not drawn),-14.2%
23,CCN(C1CCCCC1)S(=O)(=O)CCNC(=O)c1ccccc1,2.25%
24,O=C(c1ccc(-c2ccccc2)cc1)N1CCN(c2ccccn2)CC1,3.81%

row,SMILES,"hERG current change (%, negative = inhibition) at 1uM"
1,CC(=O)c1ccc(Nc2cc(C)nc3ccc(C)cc23)cc1,-53.2%
2,CCOc1ccc(NC(=O)CN(C)C(=O)c2ccc(=O)[nH]c2)cc1OCC,8.05%
3,O=C(/C=C/c1ccccc1)NC(=S)NNC(=O)Cc1cccs1,14.5%
4,COC(=O)c1ccc[n+](CC(=O)Nc2ccc(OC(F)F)cc2)c1.[Cl-],6.13%
5,CCCCN1C(Nc2ccccc2)=NC[C@@H]1Cc1ccccc1,-44.2%
6,O=C(Nc1cccc(Cl)c1)c1ccc(OC(=S)N2CCOCC2)cc1,23.2%
7,COC(=O)[C@H](CC(C)C)NC(=O)N1CCCCC1C (stereo partly drawn),13.1%
8,CCCn1c2ccccc2c2cnn(CC(=O)NCCCOC)c(=O)c21,13.7%
9,Cc1csc(NC(=O)C2CCCCC2C(=O)O)n1 (stereo not drawn),13.3%
10,COc1ccccc1C(=O)Nc1nc(-c2ccc(S(=O)(=O)N3CCOCC3)cc2)cs1,8.35%
11,NC(=O)CSc1nccn1Cc1ccc(Cl)cc1,1.89%
12,Cc1nnc(NC(=O)CSc2nc3ccccc3[nH]2)s1,26.9%
13,CC(=O)OC1CCC2(C)C(COc3ccc4ccc(=O)oc4c3)C(C)(O)CCC2C1(C)C (stereo not drawn),3.1%
14,OC1(c2ccc(F)cc2)CCN(Cc2cccnc2)CC1,11%
15,CC(C)(C)OC(=O)CN1C(=O)NC(Cc2c[nH]c3ccccc23)C1=O (stereo not drawn),8.66%
16,CCC(CC)C(=O)NCc1ccc2c(c1)cc(C)n2C,6.39%
17,CC(CCc1ccccc1)NCC(O)c1cccc([N+](=O)[O-])c1.Cl (stereo not drawn),-8.42%
18,CCc1cccc(CC)c1NC(=O)c1cccc(S(=O)(=O)N2CCN(C)CC2)c1,10.2%
19,C/C(=N\N)c1c(-c2ccccc2)c2cc(C)ccc2[nH]c1=O,2.39%
20,CC1=C(C(=O)OC2CCCC(C)C2)C(c2ccccc2)NC(=O)N1 (stereo not drawn),1.22%
21,COc1cc(OC)cc(OC(=O)C2CCN(C(=O)c3ccc(Cl)cc3)CC2)c1,13.5%
22,CN=C1SC(CC(=O)Nc2ccccc2F)C(=O)N1/N=C/c1ccc(O)c(OC)c1 (stereo not drawn),1.77%
23,Nc1c(C(=O)NCc2ccco2)nnn1-c1ccccc1,14.1%
24,Cc1cc(S(=O)(=O)N2CCOCC2)ccc1OCC(=O)NCCN1CCOCC1,9.5%

row,SMILES,"hERG current change (%, negative = inhibition) at 1uM"
1,CCc1ncc(CN2CCC(C(=O)Nc3ccc(-n4nc(C)cc4C)cc3)CC2)cn1,3.54%
2,N#C/C(=C(/O)c1ccc(F)cc1)c1nc2ccccc2s1,15.3%
3,CCN(c1cccc(C)c1)S(=O)(=O)c1cc(CN2C(=O)c3cccnc3C2=O)ccc1OC,10.4%
4,CC(c1cc2ccccc2s1)N(O)C(N)=O (stereo not drawn),2.59%
5,C=CCOc1ccc(/C(CC)=N/O)c(OC)c1,-0.148%
6,Cc1c(C(=O)Nc2nc3ccccc3[nH]2)oc2ccc(Br)cc12,3.39%
7,Cc1[nH][nH]c(=O)c1N=Nc1ccc(S(N)(=O)=O)cc1,10.6%
8,Cc1cccc(NC(=O)Cc2noc3ccccc23)c1C,3.42%
9,CC(C)C[C@H](NC(=O)N1CCCCCC1)C(=O)O,7.47%
10,Cc1ccc(S(=O)(=O)CC(CN2CCOCC2)N2CCOCC2)cc1 (stereo not drawn),13%
11,CN(C)S(=O)(=O)c1cccc(NC(=O)c2cc(-c3cccs3)nn2-c2ccccc2)c1,19.3%
12,Nc1cc(-c2ccccc2)ccc1O,16.5%
13,CC(=O)OCCn1c(C)[n+](CCOC(C)=O)c2cc(Cl)c(Cl)cc21.[I-],16.7%
14,Cn1nc(OCc2ccccc2)ccc1=O,-3.38%
15,O=C1CCCC2=C1C1(CCCCC1)N=C(Nc1nc3ccccc3s1)N2,9.3%
16,COc1ccc(C(CC(=O)O)NC(=O)COc2ccccc2OC)cc1OC (stereo not drawn),13.6%
17,CC(=O)c1cnc(Nc2nc(C)c3ccc(C)cc3n2)nc1C,9.48%
18,c1coc(CNc2c3c(nc4ncnn24)CCCC3)c1,-1.81%
19,CCOC(=O)c1sc(Nc2cccc(Cl)c2)nc1C,0.0612%
20,COc1ccc(CCNC(=O)/C=C/C(=O)O)cc1OC,14.7%
21,Cc1ccn2c(=O)cc(C)nc2c1,9.04%
22,CC1CCN(C(=O)Cn2nnc(-c3ccccc3)n2)CC1,12%
23,CCCC(=O)Nc1ccc2nc(SCC(=O)Nc3nccs3)sc2c1,11.9%
24,CCCC(=O)Nc1cc(OC)c(OC)cc1C(=O)O,5.79%

row,SMILES,"hERG current change (%, negative = inhibition) at 1uM"
1,Oc1c(Cl)cc(Cl)cc1C=Nc1ccc(Br)cc1,5.33%
2,CC1(C)CC2CC(C)(CN2C(=O)CN2C(=O)c3ccccc3C2=O)C1 (stereo not drawn),10.6%
3,c1ccc(-c2csc(Nc3ncccn3)n2)cc1,15.2%
4,Cc1c(NC(=O)Nc2ccc(F)cc2)c(=O)n(-c2ccccc2)n1C,15.3%
5,O=C(Nc1nc(-c2ccc(Cl)s2)cs1)c1ccco1,10.9%
6,CC1CC(=O)Nc2ccccc2N1S(=O)(=O)c1ccccc1 (stereo not drawn),1.01%
7,COc1ccc(C(CCN2CCN(c3ccccc3)CC2)c2c(O)cc(OC)cc2OC)cc1 (stereo not drawn),10.7%
8,CCCCOc1ccc(C(=O)N/N=C/c2cn[nH]c2-c2ccc(OC)c(OC)c2)cc1,7.52%
9,CCCc1cc(=O)[nH]c(SCC(=O)c2cc(C)n(C3CC3)c2C)n1,6.07%
10,COc1ccc(C(C[N+](=O)[O-])c2c(C)[nH]n(-c3ccccc3)c2=O)cc1 (stereo not drawn),21.4%
11,Cl.O=C(N/N=C1/CN2CCC1CC2)c1cc2ccccc2cc1O,24.9%
12,COc1cccc(CN(C)C(=O)c2ccc(NS(=O)(=O)c3ccc(F)cc3)cc2)c1OC,11.1%
13,C[C@@H]1NC(=O)[C@H](CCC(=O)O)NC(=O)c2cc([N+](=O)[O-])cc(F)c2NCCC[C@@H](C(N)=O)NC1=O,18.6%
14,CCCN(CCC)C(=O)c1c(NC(=O)CC)sc2c1CCCCC2,15.3%
15,CCOC(=O)c1ccc(NC(=O)c2cc(OC)c(OC)c(OC)c2Br)cc1,10.3%
16,Nc1cc(=O)[nH]c(SCCSc2ccccc2F)n1,17.9%
17,O=C(CCc1nc2ccccc2c(=O)[nH]1)Nc1nnc(SCc2ccccc2F)s1,-0.582%
18,Cc1cccc2cc(CN(CCCO)C(=O)Nc3cccc(Cl)c3)c(=O)[nH]c12,-8.67%
19,O=C1C=C(N2CCCCC2)C2(CCCCC2)O1,10.8%
20,CN(CC(=O)N1CCN(c2ccccn2)CC1)S(=O)(=O)c1cccc2nsnc12,0.884%
21,CC(=O)NC(c1ccc(Cl)cc1Cl)c1ccc2cccnc2c1O (stereo not drawn),17.6%
